{
  "source": "paper PMC13083723",
  "about": "(Patterns, 2026)",
  "note": "The whole screen tested about 5,400 compounds, of which about 190 (3.5%) showed an effect of 50% or more. The list shows a part of the results.",
  "data": [
    {"tested_on": "Vero-E6", "assay": "primary screen, phospholipidosis by LipidTOX staining; higher = more effect of the substance", "conditions": "10 µM", "outline": "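Single-concentration screen at 10 μM, with DMSO 0.1 v/v % and amiodarone 10 μM as controls. Read-out is LipidTOX Red phospholipid staining, which tolerates aldehyde fixation, in Vero-E6 cells.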", "units": {"result_ITMP": "%"}, "values": [
      {"smiles": "CN1CCCC(CC2c3ccccc3Sc3ccccc32)C1", "note": "(centres unmarked)", "result_ITMP": 74.2},
      {"smiles": "COc1ccccc1N1CCN(CC(O)COc2cccc3ccccc23)CC1", "note": "(centres unmarked)", "result_ITMP": 20},
      {"smiles": "CN1CCC(=C2c3ccccc3CC(=O)c3sccc32)CC1", "result_ITMP": 29},
      {"smiles": "O=C(O)CC[C@H]1CC[C@@](c2cc(F)ccc2F)(S(=O)(=O)c2ccc(Cl)cc2)CC1", "result_ITMP": -3.26},
      {"smiles": "COc1ccc2c(c1)N(C[C@H](C)CN(C)C)c1ccccc1S2", "result_ITMP": 53},
      {"smiles": "C/C=C1\\NC(=O)[C@H]2CSSCC/C=C/[C@H](CC(=O)N[C@H](C(C)C)C(=O)N2)OC(=O)[C@H](C(C)C)NC1=O", "result_ITMP": -1.23},
      {"smiles": "COC(=O)c1ccccc1O", "result_ITMP": -1.83},
      {"smiles": "Cc1ncc(OC[C@@]2(c3cccc(F)c3)C[C@H]2C(=O)Nc2ccc(F)cn2)c(C)n1", "result_ITMP": -0.98},
      {"smiles": "CCCCCCCCCCCCOS(=O)(=O)O", "result_ITMP": 1.59},
      {"smiles": "CCc1cc2c(s1)-n1c(C)nnc1CN=C2c1ccccc1Cl", "result_ITMP": -1.29},
      {"smiles": "COc1cc(OC)c(C(=O)CCCN2CCCC2)c(OC)c1", "result_ITMP": 3.55},
      {"smiles": "CC(C)Oc1ccc(Cc2ccc(NC3=NCCN3)cc2)cc1", "result_ITMP": 42.3},
      {"smiles": "NC(=O)CN1Cc2ccccc2OC1=O", "result_ITMP": -4.62},
      {"smiles": "N#CC(c1ccc(Cl)cc1)c1c(Cl)cc(-n2ncc(=O)[nH]c2=O)cc1Cl", "note": "(centres unmarked)", "result_ITMP": 8.2},
      {"smiles": "OCc1cc([C@@H](O)CNCCCCCCOCCOCc2c(Cl)cccc2Cl)ccc1O", "result_ITMP": 2.47},
      {"smiles": "O=c1ccc2ccc(O)c(O)c2o1", "result_ITMP": -5.48},
      {"smiles": "Cc1ccc(NC(=O)C(C)C)cc1C1CCN(Cc2ccc(Oc3ccc(F)c(F)c3)cc2)CC1", "result_ITMP": 22.4},
      {"smiles": "CCOc1ccc(Cc2cc([C@@H]3O[C@H](SC)[C@@H](O)[C@H](O)[C@H]3O)ccc2Cl)cc1", "result_ITMP": 1.32},
      {"smiles": "N#C/C(=C\\c1ccc(O)c(O)c1)C(N)=O", "result_ITMP": -4.24},
      {"smiles": "CO[C@@H]1COCC[C@@H]1N[C@@H]1CC[C@@](C(=O)N2CCc3ncc(C(F)(F)F)cc3C2)(C(C)C)C1", "result_ITMP": 7.4},
      {"smiles": "CC(C)(C)C(=O)OCOP(=O)(COCCn1cnc2c(N)ncnc21)OCOC(=O)C(C)(C)C", "result_ITMP": -1.22},
      {"smiles": "CC(C)CC(N)C1(c2ccc(Cl)cc2)CCC1", "note": "(centres unmarked)", "result_ITMP": 9.43},
      {"smiles": "COc1ccc(CCNCc2ccc(OCc3ccc(Cl)nc3)c(OC)c2)cc1OC", "result_ITMP": 59.3},
      {"smiles": "Cn1c(=O)cnn(CCCCN2CCN(c3ncccn3)CC2)c1=O", "result_ITMP": 0.56},
      {"smiles": "COc1cc2c(c(OC)c1OC)-c1c(cc3c(c1OC)OCO3)C[C@H](C)[C@@](C)(O)C2", "result_ITMP": -2.3},
      {"smiles": "CC(=O)O[C@H]1CC[C@@]2(C)C(=CCC3C2CC[C@]2(C)C(=O)CCC32)C1", "note": "(some centres unmarked)", "result_ITMP": 0.97},
      {"smiles": "CCCCc1nc(Cl)c(C(=O)O)n1Cc1ccc(-c2ccccc2-c2nnn[nH]2)cc1", "result_ITMP": -4.07},
      {"smiles": "Cc1cccc(/C=N/Nc2cc(N3CCOCC3)nc(OCCc3ccccn3)n2)c1", "result_ITMP": -0.71},
      {"smiles": "CC(C)(S)[C@@H](N)C(=O)O", "result_ITMP": 16.6},
      {"smiles": "Cc1ccc(NC(=O)c2ccc(CN3CC[C@H](N(C)C)C3)c(C(F)(F)F)c2)cc1Nc1nccc(-c2cncnc2)n1", "result_ITMP": 18.8},
      {"smiles": "O=C(O)C1CSCN1", "note": "(centres unmarked)", "result_ITMP": -4.52},
      {"smiles": "CC(=O)NC[C@H]1CN(c2ccc(N3CCSCC3)c(F)c2)C(=O)O1", "result_ITMP": 5.74},
      {"smiles": "Cc1cc(C(=O)NNCc2ccccc2)no1", "result_ITMP": -10.7},
      {"smiles": "O=S(=O)(NCC1CC1)c1ccc(Nc2nccc(N3CCCc4cc(O)ccc43)n2)cc1", "result_ITMP": -9.55},
      {"smiles": "O=C(O)CCCN1C(=O)c2cccc3cccc(c23)C1=O", "result_ITMP": -9.41},
      {"smiles": "COc1ccc(-c2ccc(=N)n(CCCC(=O)O)n2)cc1", "result_ITMP": -1.58},
      {"smiles": "CS(=O)(=O)c1cccc(CNc2nc(Nc3ccc4c(c3)CCC(=O)N4)ncc2C(F)(F)F)c1", "result_ITMP": -6.68},
      {"smiles": "CCO[C@H]1O[C@@H]2O[C@@]3(C)CC[C@H]4[C@H](C)CC[C@@H]([C@H]1C)[C@@]24OO3", "result_ITMP": -2.4},
      {"smiles": "COc1cc(OCc2cccc(-c3ccccc3)c2C)cc(OC)c1CN1CCCC[C@H]1C(=O)O", "result_ITMP": -1.58},
      {"smiles": "CCCCCCCCCCC[C@@H](C[C@@H]1OC(=O)[C@H]1CCCCCC)OC(=O)[C@H](CC(C)C)NC=O", "result_ITMP": -8.59},
      {"smiles": "CC(C)(C)n1nc(-c2ccc(Cl)cc2)c2c(N)ncnc21", "result_ITMP": 0.6},
      {"smiles": "CCCCCCCCCCCCCCOC(=O)c1cccnc1", "result_ITMP": 3.32},
      {"smiles": "Cn1cc(C(=O)c2cccc3ccccc23)cc1C(=O)O", "result_ITMP": -1.38},
      {"smiles": "Cn1c(=O)c2c(ncn2CC(=O)O)n(C)c1=O", "result_ITMP": -4.41},
      {"smiles": "O=C(CC(c1ccccc1)c1ccccc1)N1CCN(C(c2ccccc2)c2ccccc2)CC1", "result_ITMP": -0.66},
      {"smiles": "O=c1cc(N2CCNCC2)oc2c(-c3ccccc3)cccc12", "result_ITMP": 19.1},
      {"smiles": "O=C1C2CCN(CC2)C1(CO)CO", "result_ITMP": -2.06},
      {"smiles": "COc1cc2ncc(-c3ccccc3)nc2cc1OC", "result_ITMP": -10.1},
      {"smiles": "Cc1ccccc1N(C)C(=O)c1ccc(S(=O)c2nccs2)c([N+](=O)[O-])c1", "note": "(centres unmarked)", "result_ITMP": 70.1},
      {"smiles": "CCC[C@H](Nc1nc(-c2ccc(NC(=O)NCC)c(OC)c2)ncc1C)c1cccnc1", "result_ITMP": 39.9},
      {"smiles": "C=CCC1(CC(C)C)C(=O)NC(=O)NC1=O", "result_ITMP": -3.26},
      {"smiles": "COc1ccc(C(=O)Nc2sc3c(c2C(N)=O)CCCC3)cc1OC", "result_ITMP": -1.46},
      {"smiles": "CC(=O)N[C@@H](CCC(N)=O)C(=O)O", "result_ITMP": 3.75},
      {"smiles": "O=C(Nc1cccc(C(F)(F)F)c1)Nc1ccc(Br)cc1-c1nnn[nH]1", "result_ITMP": 0.77},
      {"smiles": "CC(=O)NO", "result_ITMP": 2.78},
      {"smiles": "CCC(C(=O)O)c1ccc(CC(C)C)cc1", "note": "(centres unmarked)", "result_ITMP": -4.5},
      {"smiles": "CN(C)CC/C=C1\\c2ccccc2CSc2ccccc21", "result_ITMP": 43.7},
      {"smiles": "COc1ccc([C@]2(O)CC[C@@H](N3CC[C@@H](NC(=O)CNC(=O)c4cccc(C(F)(F)F)c4)C3)CC2)cn1", "result_ITMP": -1.15},
      {"smiles": "O=C(CCCN1CCC(n2c(=O)[nH]c3ccccc32)CC1)c1ccc(F)cc1", "result_ITMP": 0.96},
      {"smiles": "COc1cc(Nc2ncc(F)c(Nc3ccc4c(n3)NC(=O)C(C)(C)O4)n2)cc(OC)c1OC", "result_ITMP": 4.81},
      {"smiles": "COc1ccc(CCNCC(O)COc2cccc(C)c2)cc1OC", "note": "(centres unmarked)", "result_ITMP": 34.1},
      {"smiles": "CNC(=O)c1cccc(NC(=O)N2CCC(Oc3ccccc3Cl)CC2)c1", "result_ITMP": -1.62}
    ]}
  ]
}
